{
  "source": "ChEMBL document CHEMBL4888484",
  "about": "“Replenishing the malaria drug discovery pipeline: Screening and hit evaluation of the MMV Hit Generation Library 1 (HGL1) against asexual blood stage Plasmodium falciparum ,using a nano luciferase reporter read-out” (2022)",
  "note": "The whole screen tested about 150,000 compounds, of which about 540 (0.36%) showed an effect of 50% or more. This is one part of the list.",
  "data": [
    {"test_system": "Plasmodium falciparum", "assay": "Primary screen in NF54 nanoGlo assay, in single point, at 2uM, 72h; a lower Z score goes with more inhibition", "assay_type": "functional, Erythrocyte", "conditions": "timepoint 72 hour", "units": {"% Inhibition": "%"}, "values": [
      {"smiles": "CCN1CCc2cc(OC)c(OC)cc2C1C(NC(=O)c1ccccc1C)C(C)C", "note": "(centres undefined)", "% Inhibition": -5, "Z score": 0.69},
      {"smiles": "Cc1cc(CN2CC[C@H](N3CCCCC3)C2)on1", "% Inhibition": 1, "Z score": -0.07},
      {"smiles": "Cc1coc(C)c1C(=O)NC1CCCC1", "% Inhibition": -9, "Z score": 1.16},
      {"smiles": "CC(C)c1nnc2n1CCC1(CC2)CCN(C(=O)c2ccccc2)CC1", "% Inhibition": 2, "Z score": -0.16},
      {"smiles": "CCCC(O)CN(Cc1ccccc1)CC1CC(c2ccc(Cl)cc2)=NO1", "note": "(centres undefined)", "% Inhibition": -11, "Z score": 1.03},
      {"smiles": "CCC(NC(=O)Nc1sc2c(c1C#N)CCCCC2)(C(F)(F)F)C(F)(F)F", "% Inhibition": 3, "Z score": -0.48},
      {"smiles": "CCN(C(=O)c1cnn2ccccc12)[C@H]1CCS(=O)(=O)C1", "% Inhibition": 10, "Z score": -1.34},
      {"smiles": "C[C@@H](c1nc(C(C)(C)C)no1)N(C)Cc1ccc(Br)o1", "% Inhibition": -8, "Z score": 1.33},
      {"smiles": "C[C@H](NC(=O)c1ccc(O)nc1)c1cc2ccccc2o1", "% Inhibition": -2, "Z score": 0.25},
      {"smiles": "O=C(C1CCOC1)N1CCCC(c2[nH]ncc2Cc2ccccc2)C1", "note": "(centres undefined)", "% Inhibition": -13, "Z score": 1.63},
      {"smiles": "Cc1cc(NC(=O)N(C)CCN(C)C2CCN(C)CC2)ccc1F", "% Inhibition": -6, "Z score": 0.66},
      {"smiles": "Cc1cc(C(=O)N2CCC(n3cc(-c4ccccc4)nn3)CC2)c(=O)[nH]c1C", "% Inhibition": -11, "Z score": 1.2},
      {"smiles": "CC(C)n1ncnc1CN[C@H](c1cccc2ccccc12)C(F)(F)F", "% Inhibition": 9, "Z score": -1.04},
      {"smiles": "CCOC(=O)C1CCN(C(=NC)NCc2ccccc2)CC1", "% Inhibition": -17, "Z score": 1.5},
      {"smiles": "CC(C)C[C@@H](CN(C)C)NS(=O)(=O)c1cnc2c(cnn2C)c1", "% Inhibition": -5, "Z score": 0.75},
      {"smiles": "CC(C)[C@H]1CN(C(=O)c2cccn2C2CC2)C[C@@H]1C(=O)O", "% Inhibition": -1, "Z score": 0.22},
      {"smiles": "C[C@H](NC(=O)CCc1ccncc1)c1cc2n(n1)CCCC2", "% Inhibition": 2, "Z score": -0.35},
      {"smiles": "CS(=O)(=O)N1CCN(S(=O)(=O)N2CCN(c3ccccc3Cl)CC2)CC1", "% Inhibition": 5, "Z score": -0.74},
      {"smiles": "Cc1cc(C)c2[nH]c(C)c(CC(=O)NC3(C(N)=O)CCCCCC3)c2c1", "% Inhibition": -3, "Z score": 0.45},
      {"smiles": "Cc1cnn([C@@H](C)CNC(=O)c2cc(CN3CCC(O)CC3)on2)c1", "% Inhibition": -6, "Z score": 0.98},
      {"smiles": "COc1ccc(CCCN2CC[C@H](C(N)=O)C2)cc1F", "% Inhibition": -8, "Z score": 0.74},
      {"smiles": "Cc1cc(=O)[nH]c(CCN[C@@H](C)COc2ccccc2)n1", "% Inhibition": -2, "Z score": 0.33},
      {"smiles": "Cc1noc2nc(C3CC3)cc(C(=O)NC3CCN(C4CC4)CC3)c12", "% Inhibition": -2, "Z score": 0.28},
      {"smiles": "Cc1csc(CNC(=O)C(=O)Nc2ccc3c(c2)C(=O)N(C)C3=O)n1", "% Inhibition": 35, "Z score": -4.73},
      {"smiles": "Cc1nnc(C(C)NC(=O)C2(C)CCCN(C(=O)c3ccccc3)C2)o1", "note": "(centres undefined)", "% Inhibition": -7, "Z score": 0.99},
      {"smiles": "COc1ccc(NC(=O)C(c2ccccc2)N2CCC(N3CCOCC3)C2)cc1Cl", "note": "(centres undefined)", "% Inhibition": -11, "Z score": 0.94},
      {"smiles": "Cc1nc(N(C)C)nc(N[C@H]2CCNC2=O)c1C", "% Inhibition": 11, "Z score": -1.28},
      {"smiles": "Cc1cc(-c2ccc(C)c(S(=O)(=O)N(CCN3CCOCC3)Cc3ccco3)c2)on1", "% Inhibition": 6, "Z score": -0.84},
      {"smiles": "O=C(c1ccc2cc[nH]c2c1)N1CCO[C@H](C(F)(F)F)C1", "% Inhibition": 8, "Z score": -0.82},
      {"smiles": "CC[C@H]1CN2C=NC(N3CCN(C(=O)Cc4ccccc4)CC3)=CC2=N1", "% Inhibition": 56, "Z score": -2.27},
      {"smiles": "CC(C)NC(=O)c1cc(=O)c(OCc2ccccc2)c[nH]1", "% Inhibition": -5, "Z score": 1.03},
      {"smiles": "Cc1nc(C)c(C(=O)N2CC[C@@H](O)[C@H]2c2ccc(Cl)cc2)o1", "% Inhibition": -12, "Z score": 1.3},
      {"smiles": "Cc1n[nH]c(C)c1NC(=O)NCC1CC12CCc1ccccc12", "note": "(centres undefined)", "% Inhibition": 26, "Z score": -2.91},
      {"smiles": "C[C@H](NC(=O)Cn1nc(C2CC2)ccc1=O)C(N)=O", "% Inhibition": 19, "Z score": -2.49},
      {"smiles": "O=C1NC[C@H]2O[C@H](CCOc3ccccc3C(=O)N3CCN(Cc4cccc(Cl)c4)C[C@@H]13)CC[C@@H]2O", "% Inhibition": 0, "Z score": -0.05},
      {"smiles": "COc1ccc(Nc2nnc(-n3nc(C)cc3C)c3ccccc23)c(OC)c1", "% Inhibition": 1, "Z score": -0.26},
      {"smiles": "Cc1cccc(CS(=O)(=O)c2nnc([C@H](Cc3ccccc3)NC(=O)OC(C)(C)C)o2)c1", "% Inhibition": -9, "Z score": 0.77},
      {"smiles": "CCN(CC(=O)Nc1nc(-c2ccc(Cl)cc2)cn1-c1ccc(C)cc1)S(=O)(=O)c1ccc(C)cc1", "% Inhibition": -11, "Z score": 1.43},
      {"smiles": "O=C1C2CCC3(CC2C(=O)N1CCc1c[nH]c2ccccc12)OCCO3", "note": "(centres undefined)", "% Inhibition": -5, "Z score": 0.58},
      {"smiles": "COc1ccc(C)cc1C(=O)N[C@H]1C[C@@H](c2nnc(CN(C)C)n2C)C1", "% Inhibition": -10, "Z score": 1.97},
      {"smiles": "CCc1nc(-c2ccc3c(c2)CCN3C(=O)Cc2ccc(F)cc2)no1", "% Inhibition": 12, "Z score": -1.42},
      {"smiles": "COC[C@H](C)N(Cc1ccc(OC)c(OC)c1)C(=O)Cc1cccnc1", "% Inhibition": -7, "Z score": 1.34}
    ]}
  ]
}
